Residue numbers refer to the chain shown, from its start. The list shows a part of the results. Binding of human antibodies (heavy:light variable regions, tested as scFv in one mRNA-display pool) to influenza hemagglutinin, with or without the stem antibody CR9114 bound first. Score = (mean enrichment − median) / interquartile range of that screen; higher = more enriched, 0 = typical non-binder. Active = above the paper's cut-off per screen: stems 28; unblocked H1 Solomon Islands 5, H1 Michigan 3, H3 5, H5 19, H7 2.85, both B 5; blocked 9, 7, H5 10, H7 10, B Phuket 10, B Lee 11.5. Scores are scaled within each screen and are no affinities; replicates correlate at about 0.6 to 0.9, and antibodies rare in the pool are noisier.
B1: R95-1H10 (protein)
chain 1: EVQLVESGGVVVQPGGSLRLSCAASGFTFDDFVMHWVRQAPGKGLEWLSLITWDGGNSYYADSVKGRFTISRDNNKNSLYLQMNSLRPEDTAFYYCAKDIISGNYEDFSGYLDSWGQGTLVTVSS
chain 2: EIVMTQSPATLSVSPGGRATLSCRASQSVSSNLAWYQQKPGQPPRLLMYGASTRATGIPARFSGSGSGTEFTLTISSLQSEDVAVYYCQQYNNWPSITFGQGTRLEIK
B2: K77-2B03 (protein)
chain 1: EVQLVESGGIVVRPGGSLTLSCTTSGFTFDAHAMHWVRQAPGKGLEWVSLIGWDSAVTFYADSVRGRFNISRDNSKNSLYLQINSLRLEDTALYYCVRDDGSGSYGYHHFDLDVWGRGTMVIVSS
chain 2: DVVMTQSPLSLPVTLGQPASISCRSTQSLVFSDGDTYLNWFQQRPGQSPRRLIYKVSNRDSGVPDRFSGSGSGTDFTLRISRVEADDVGVYYCMQGTHWPLTFGGGTKVEI
B3: C6-2-2C06 (protein)
chain 1: VQLLESGGGLVQPGGSLRLSCAASGFTFSFSAMSWIRQTPAKGLEWVAAISGNGGATFYTDSVKGRFTISRDNSKSTVHLQMHSLRAEDTAVYYCAKKSPNDYDHYWGQGALVTVSS
chain 2: DIQMTQSPSTLSSSVGDSVTITCRASQSISTYLAWYQQKPGKAPKVLIYQASILESGVPSRFSGSGSGTEFTLTISSLQPDDFATYYCQQYNSYSGTFGQGTKVEIK
B4: AG11-2A01 (protein)
chain 1: VQLVESGGAVVQPGGSLTLSCAASGFTFDDYAMHWVREVPGKGLEWVSLISWDAGNTYYGDSVKGRFNISRDNSKNFLYLQMNSLRADDTALYYCAKDIGGGNYDYYHGMDAWGQGTTVTVSS
chain 2: EIVMTQSPATLSVSPGERATLSCRASYSFGSKLAWYQQKPGQAPRLLIYGTSTRATGIPARFSGSGSGTEFTLTISSLQSEDFAVYYCQQYNNWPYTFGQGTKVEIK
B5: W85-1H08 (protein)
chain 1: EVQVVESGGGVVQPGRSLRLSCAASGFTFGSYAMYWVRQAPGKGLEWVAVISYDGSDKYYGDFVKGRFTISRDNSKNTLYLQMNSLRVEDTAVYYCLRGRYGDPPTDFWGQGTLVTVSS
chain 2: QSALTQPPSVSEAPRQRVTISCSGSRSNIGNNAVNWYQQLPGKAPKLLIFYDDLLSSGVSDRFSGSKSGTSASLAISGLQSEDEADYYCATWDDILNGPVFGGGTKLTV
B6: 042-10-2D01 (protein)
chain 1: QVQLQESGPRVVKPSETLSLTCSVSGESISSFYWSWIRQPAGKGLEWIGRIDSSGSTNYNPSLKSRVSMSLDTSKKQVSLKLTSVTAADTAVYYCVRDWWEVQYGNAFDMWGQGTMVTVSS
chain 2: DIQMTQSPSSLSASVGDRVILTCRASQSIGTYLNWYQQKPGKAPKFLIYVASNLQSGVPSRFSGSGSGTDFTLTISSLQPEDFATYFCQQSHSIPWTFGQGTKVEIK
B7: K77-2A10 (protein)
chain 1: EVQLVESGGGLVQPGGSLRLSCEASGFIFSTYSMNWVRQAPGKGLEWVSYISDSSRTIYYADSVKGRFTISRDNTKNSLFLQMNNLRAEDTALYYCARDPDTPFIRAFDSWGQGTLVTVSS
chain 2: DIQLTQSPSFLSASVGDRVTITCRASQDISSYVAWYQQKPGKAPKLLIYATSTLQSGVPSRFSGGGSGTEFTLTIRGLQPEDFATYYCQQLNIYPPVTFGQGTKLEIK
B8: 01.d.04 (protein)
chain 1: EVQLVESGGGVVQPGGSLRLSCAASGFTFSDYGIHWVRQAPAKGLEWVTFIRHDGNSEYFVDSVKGRFTVSRDNSKNTVYLQVNRLRPDDTAIYYCAKDAVWSGYYPTHSYFEYWGQGTLVPVSS
chain 2: DIQMTQVPVSLSASVGDRVTITCRASQGISNYLNWYQQKPGKAPKLLIYAISNLFSGVPSRFSGSESGTDFTLTISSLQPEDFATYYCQQTYTTPQTFGQGTKVEIK
B9: K77-2H08 (protein)
chain 1: QVQLQESGPGLVKPSETLSLTCSVSGNSITSGYFWGWIRQTPGKGLEFIGSISHKGEPYYNPPLKGRVAVSSDTSKNEFSLTLASVTAADTAIYYCARERGGTYGYFDHWGPGSLVTVSS
chain 2: DIQMTQSPSTLSASVGDRVTITCRASESIGAWVTWYQQKPGKAPNLLIYKASTLQTGVPSRFSGGGSGTDFTLTISSLQPDDFATYYCQQYFRDVTFGQGTKVEIK
B10: 236-14-IgG-1A06 (protein)
chain 1: QVQLQESGPGLVKPSETLSLTCTVSGGSISSSSHYCTWIRQPPGKGLEWIGGIYYTGNAYYNPSLKSRVTISVDASKNQFSLKLRSVTAADTAVFYCVGSQAIDAFDFWGQGTMVTVSS
chain 2: QSALTQPPSASGSPGQSVTISCTGTSSDVGYYNYVSWYQQHPGKAPKLMIYEVSNRPSGVPDRFSGSKSGNSASLTVSGLQAEDEADYYCSSYGGSNNVIFGGGTKLTVL
B11: K77-1B02 (protein)
chain 1: EVQLVESGGGLERPGGSLRLSCAASGFTFDDHGMSWVRQAPGKGLEWVSGINWNGGSTGYADSVKGRFTISRDNAKSSLFLQMNSLRAEDTALYYCARDSQQGIAAAGIFHYWGQGTLVTVSS
chain 2: DIQMTQSPSTLSASVGDRVTITCRASQSINRWLAWYQQKPGKAPKLLIYRASSLESGVPSRFSGSGSGTEFTLTISSLQPDDFATYFCQHYEGYSWTFGQGTKVDIK
B12: 042-10-2B05 (protein)
chain 1: QVQLVESGGGVVQTGRSLRLSCAASGFTFRNYAMHWVRQAPGKGLEWVAVILYDGNNEYYADFAKGRFTISRDNSKNIVYLQLNSLRPEDSAIYFCAKDGEYSGHESEVHWGQGTLVTVSS
chain 2: B11 chain 2 with I29V, N30F, R31S, L46V, R50K, F87Y, H90Q, E92Q, G93S, D105E
B13: AG1-A01 (protein)
chain 1: VQLVESGGGFVQAGRSLRLSCAASGFIFDDFAMHWVRQAPGGGLEWVSHISSNSGLIVYAESVKGRFTISRDNAMDALYLQMNSLTIEDTAFYYCMKGGHYSDSRGYGSNWGRGTLVTVSS
chain 2: DIQMTQSPSSLSASVGDRVTITCRTSQAISNRLAWFQQKPGKAPKSLIYAASTLQTGVPSKFSGTGSGTDFTLTISSLQPEDFATYYCQQYKSFPLTFGRGTKVEIK
B14: 014-10-1G06 (protein)
chain 1: QVQLVESGGGVVQPGRSLRLSCAASGFTFNSYAMHWVRQAPGKGLEWVAVISYDETNKHFSDSVKGRFTISRDNSKNTLLLQMDSLRIEDTAVYYCAREASFAFFDIWGQGTMVTVSS
chain 2: EIVMTQSPATLSVSPGERATLSCRASQSLTINLAWYQQRPGQAPRLLIYGASTRATGIPARFSGSGSGTEFTLTISSLQSEDFAVYYCQQYHNWPPLTFGGGTKVEIK
B15: C1-3E03 (protein)
chain 1: VQLVESGGGLVQPGGSLRLSCVVSGFSFSKYEMNWVRQAPGKGLEWISYISSSGETIFYADSVRGRFTTSRDNAHNSLYLQMNSLRAEDTAIYYCANMRAWFWYDPADDIGHWGQGTLVTVSS
chain 2: EIVMTQSPVTLSVFPGERATLSCRASQSVNNNLAWYQQRPGQTPKLLIYDASTRATGIPARFSGSGSGTVFTLTISSLQSEDIAVYYCQQYAGWPPWTFGQGTKVEIK
B16: antibody 3E05 (protein)
chain 1: EVQLVESGGGLVQPGGSLRLSCAASGFTFSSYDMHWVRQAAGKGLEWVSAIGTAGDPYYPGSVKGRFTISRENAKNSLYLQLNSLRAGDTAVYYCARGVAASLVPRRYYYGLDVWGQGTTVTVSS
chain 2: SYELTQPPSVSVSPGQTASITCSGDMLGDKYACWYQQKPGQSPVLVIYEDTKRPSGIPERFSGSNSGNTATLTISGTQAMDEADYYCQAWTGSTPVVFGGGTKLTVL
B17: SFV009-3A02 (protein)
chain 1: EVQLLESGGGLVQPGGSLRLSCEASGFTFISYAMSWVRQAPGKGLEWVSVISGSGGARYYADSVKGRFTISRDNSKNTLYLEMNNVRAEDTAVYFCAKDRILPYDTDAFDIWGQGTMVTVSS
chain 2: DIQMTQSPSTLSASVGDRVTITCRASESVSVSLAWYQQKPGKAPKLLIYKASTLESGVPPRFSGSGSGTEFTLTISSLQPNDFATYYCQEYHTSSRVTFGPGTKVDIK
B18: K77-2A05 (protein)
chain 1: EVQLVESGGGVVQPGRSLRLSCAASGFTFASYGLHWVRQAPGKGLEWVAHVSSEGSEKYYADSVKGRFTISRDNPKNKLYLQMTSLRAEDTAVYYCARDRSGYFQVDYWGQGTLVTVSS
chain 2: QSALTQPASVSGSPGQSITISCTGATSDVGNYNLVSWYQHHPGKVPKLILYEVTERPSGVSNRFSGSKSGNTASLTISGLQAEDEADYYCCSYATGGIFLFGTGTKVTVL
B19: C1-2B06 (protein)
chain 1: VQLQESGPGLVKPSETLSLTCSVSGDSISETIYYWGWIRQSQGKGLEWIGNVYYDASTYYNPSLKSRVTMSIDTSKNQFSLKVSSVTAADTAVYYCARVPDGYKYYYGMDVWGQGTTVTVSS
chain 2: EIVMTQSPATLSVSPGERVTLSCRASQGVSSKLAWYQQKRGQAPRLLIYGASTRATGIPARFSGSGSGTEFTLTISSLQSEDFAIYYCQQYYNWTPITFGQGTRLEIK

target: H1 HA stem construct (mini-HA #4900); assay: mRNA display binding score; higher = more enriched on the antigen; conditions: antigen blocked with: nothing
Experimental: (§1)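 A pool of natively paired antibodies, displayed as scFv on mRNA, was selected once on antigen-coated beads and sequenced before and after; two replicates.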

mRNA display binding score, inactive:
B1 -0.287
B2 0.107
B3 -1.24
B4 -1.22
B5 -1.03
B6 -0.554
B7 -0.433
B8 0.788
B9 -0.347
B10 0.806
B11 0.33
B12 -0.18
B13 1.04
B14 0.144
B15 -0.231
B16 -0.00878
B17 -0.82
B18 -0.946
B19 -0.627

target: H3 HA stem construct (H3ssF); assay: as above; conditions: antigen blocked with: nothing
Experimental: as §1

mRNA display binding score, inactive:
B1 -0.0913
B2 0.00388
B3 2.91
B4 0.161
B5 0.0882
B6 0.417
B7 -0.186
B8 0.191
B9 -0.411
B10 -0.0939
B11 -0.0773
B12 -0.229
B13 0.563
B14 0.295
B15 -0.0427
B16 0.0199
B17 -0.493
B18 -0.742
B19 -0.417
